Results reported in paper PMC6515139, “Oligomeric Architecture of Mouse Activating Nkrp1 Receptors on Living Cells” (International Journal of Molecular Sciences, 2019).
Numbering of substitutions follows the chain as printed. Names and notes keep the numbering of the source. These are yes or no findings as the source states them, for the method shown. For some of these results: In cells and extracts the contact can be indirect. Some entries that bind do so weakly or less than the wild type. For some of these results: Tags and fused reporters may be left off the sequences shown. One block for each molecule: values may come before it.

The chains behind the UniProt entries cited, without tags or fusion partners. Residues count along the entry.
UniProt P01731, residues 28-247: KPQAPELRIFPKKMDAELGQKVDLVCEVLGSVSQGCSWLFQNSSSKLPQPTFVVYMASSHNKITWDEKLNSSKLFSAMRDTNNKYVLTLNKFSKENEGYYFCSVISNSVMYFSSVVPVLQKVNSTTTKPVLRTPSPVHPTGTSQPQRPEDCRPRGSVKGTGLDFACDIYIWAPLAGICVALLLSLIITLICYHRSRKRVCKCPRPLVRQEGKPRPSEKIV

Assays:
[1] = molecular target: CD8α-EGFP (UniProt P01731); experiment: FRET or BRET; homo-FRET (steady-state fluorescence anisotropy of EGFP, time-domain, TCSPC) at the plasma membrane of living transfected Jurkat cells on PLL-coated slides, 37 °C; semi-quantitative, calibrated by monomeric LAT and dimeric CD8α
[2] = molecular target: EGFP-Nkrp1c1 (mouse (C57BL/6)) (UniProt P27814); experiment: as above
[3] = molecular target: EGFP-Nkrp1c1 (mouse (C57BL/6)) (UniProt P27814); experiment: non-reducing SDS-PAGE with anti-GFP immunoblotting; lysates of transfected COS-7 cells (1% n-decyl-β-D-maltopyranoside, 40 mM iodoacetamide, on ice), 10% gel, non-reducing conditions
[4] = molecular target: EGFP-Nkrp1c1 (mouse (C57BL/6)) (UniProt P27814); experiment: reducing SDS-PAGE with anti-GFP immunoblotting; lysates of transfected COS-7 cells as in a2, reducing conditions (100 mM DTT)
[5] = molecular target: EGFP-Nkrp1c1_C74,75S (mouse (C57BL/6)) (UniProt P27814); experiment: non-reducing SDS-PAGE with anti-GFP immunoblotting; lysates of transfected COS-7 cells (1% n-decyl-β-D-maltopyranoside, 40 mM iodoacetamide, on ice), 10% gel, non-reducing conditions
[6] = molecular target: EGFP-Nkrp1c1_C74,75S (mouse (C57BL/6)) (UniProt P27814); experiment: reducing SDS-PAGE with anti-GFP immunoblotting; lysates of transfected COS-7 cells as in a2, reducing conditions (100 mM DTT)
[7] = molecular target: EGFP-Nkrp1f (mouse (C57BL/6)) (UniProt Q8VD98); experiment: FRET or BRET; homo-FRET (steady-state fluorescence anisotropy of EGFP, time-domain, TCSPC) at the plasma membrane of living transfected Jurkat cells on PLL-coated slides, 37 °C; semi-quantitative, calibrated by monomeric LAT and dimeric CD8α
[8] = molecular target: EGFP-Nkrp1f (mouse (C57BL/6)) (UniProt Q8VD98); experiment: non-reducing SDS-PAGE with anti-GFP immunoblotting; lysates of transfected COS-7 cells (1% n-decyl-β-D-maltopyranoside, 40 mM iodoacetamide, on ice), 10% gel, non-reducing conditions
[9] = molecular target: EGFP-Nkrp1f (mouse (C57BL/6)) (UniProt Q8VD98); experiment: reducing SDS-PAGE with anti-GFP immunoblotting; lysates of transfected COS-7 cells as in a2, reducing conditions (100 mM DTT)
[10] = molecular target: EGFP-Nkrp1f_C74S (mouse (C57BL/6)) (UniProt Q8VD98); experiment: FRET or BRET; homo-FRET (steady-state fluorescence anisotropy of EGFP, time-domain, TCSPC) at the plasma membrane of living transfected Jurkat cells on PLL-coated slides, 37 °C; semi-quantitative, calibrated by monomeric LAT and dimeric CD8α
[11] = molecular target: EGFP-Nkrp1f_C74S (mouse (C57BL/6)) (UniProt Q8VD98); experiment: non-reducing SDS-PAGE with anti-GFP immunoblotting; lysates of transfected COS-7 cells (1% n-decyl-β-D-maltopyranoside, 40 mM iodoacetamide, on ice), 10% gel, non-reducing conditions
[12] = molecular target: EGFP-Nkrp1f_C74S (mouse (C57BL/6)) (UniProt Q8VD98); experiment: reducing SDS-PAGE with anti-GFP immunoblotting; lysates of transfected COS-7 cells as in a2, reducing conditions (100 mM DTT)
[13] = molecular target: T1, LAT-EGFP, O43561; experiment: FRET or BRET; homo-FRET (steady-state fluorescence anisotropy of EGFP, time-domain, TCSPC) at the plasma membrane of living transfected Jurkat cells on PLL-coated slides, 37 °C; semi-quantitative, calibrated by monomeric LAT and dimeric CD8α; conditions: remark: other sources report otherwise
T1 chain: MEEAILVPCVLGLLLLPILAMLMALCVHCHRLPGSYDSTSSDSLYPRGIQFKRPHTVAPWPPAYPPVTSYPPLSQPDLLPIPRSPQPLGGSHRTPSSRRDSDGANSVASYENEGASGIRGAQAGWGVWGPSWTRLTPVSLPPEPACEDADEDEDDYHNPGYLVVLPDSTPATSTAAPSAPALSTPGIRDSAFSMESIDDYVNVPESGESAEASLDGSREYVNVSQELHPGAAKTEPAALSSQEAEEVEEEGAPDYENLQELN

- binding [1]: binds
Molecule: CD8α-EGFP (from UniProt P01731 28-247) (receptor)

- binding [2]: binds
- binding [3]: binds
B1: EGFP-Nkrp1c1 (receptor, mouse (C57BL/6), UniProt P27814 1-223, looked up)
chain: MDTASIYLGLKPPRTLGAWHESPPSLPPDACRCPRSHRLALKLSCAGLILLVLTLIGMSVLVRVLVQKPSREKCCVFIQENLNKTTDCSVNLECPQDWLLHRDKCFHVSQVSNTWEEGQADCGRKGATLLLIQDQEELRFLLDSIKEKYNSFWIGLRFTLPDMNWKWINGTTFNSDVLKITGVTENGSCASILGDKVTPESCASDNRWICQKELNHETPSNDS
notes: last residue S223; Vector pXJ41; also called c1 isoform; source: Jurkat, transiently transfected, living cells; COS-7, transiently transfected, in lysate; not shown: EGFP (with spacer GSGGGS), N-terminal, kept
- binding [4]: no binding (condition: reducing conditions (100 mM DTT))

- binding [5]: binds
B2: EGFP-Nkrp1c1_C74,75S (receptor, UniProt P27814 1-223)
chain: B1 chain with C74S, C75S
- binding [6]: no binding (condition: reducing conditions (100 mM DTT))

- binding [7]: binds
- binding [8]: binds
B3: EGFP-Nkrp1f (receptor, mouse (C57BL/6), UniProt Q8VD98 1-217, looked up)
chain: MDTSKVHGNVKPFRCPGYKQASSPSFSPDACRCPHWHHLALKSGCAGLILLLLSLIGLSVLVRFLVQKPPIEKCSVAAQENRTELTGRSAILECPRYWHPHWNKCLFVSQISRPWAEGRDACSMEDAILLLIENKEELRFVQNLIKGKEQLFFIGLKYVQKEKIWKWIDGSILNPNLLRITGKDKENSCAIISHTEVFSDSCSSDNHWICQKTLIHV
notes: last residue V217; Vector pXJ41; also called f isoform; source: Jurkat, transiently transfected, living cells; COS-7, transiently transfected, in lysate; not shown: EGFP (with spacer GSGGGS), N-terminal, kept
- binding [9]: no binding (condition: reducing conditions (100 mM DTT))

- binding [10]: binds weakly
- binding [11]: binds
B4: EGFP-Nkrp1f_C74S (receptor, mouse (C57BL/6), UniProt Q8VD98 1-217, looked up)
chain: B3 chain with C74S
notes: Two extra C-terminal residues (Thr-Gly) possible as for m8 (surmise from the primer); also called C74S mutant of Nkrp1f; source: Jurkat, transiently transfected, living cells; COS-7, transiently transfected, in lysate; not shown: EGFP (with spacer GSGGGS), N-terminal, kept
- binding [12]: no binding (condition: reducing conditions (100 mM DTT))

- binding [13]: no binding
B5: LAT-EGFP, O43561 1-262 (protein)
chain: T1 chain
